Some of the results follow. At the low end of the ranking, values are background and their order means little. Measured with an extract: partners may take part in the binding.

The target in the test is T1, HNF4alpha8 (COS-7 nuclear extract) (UniProt P41235-5).
T1 sequence: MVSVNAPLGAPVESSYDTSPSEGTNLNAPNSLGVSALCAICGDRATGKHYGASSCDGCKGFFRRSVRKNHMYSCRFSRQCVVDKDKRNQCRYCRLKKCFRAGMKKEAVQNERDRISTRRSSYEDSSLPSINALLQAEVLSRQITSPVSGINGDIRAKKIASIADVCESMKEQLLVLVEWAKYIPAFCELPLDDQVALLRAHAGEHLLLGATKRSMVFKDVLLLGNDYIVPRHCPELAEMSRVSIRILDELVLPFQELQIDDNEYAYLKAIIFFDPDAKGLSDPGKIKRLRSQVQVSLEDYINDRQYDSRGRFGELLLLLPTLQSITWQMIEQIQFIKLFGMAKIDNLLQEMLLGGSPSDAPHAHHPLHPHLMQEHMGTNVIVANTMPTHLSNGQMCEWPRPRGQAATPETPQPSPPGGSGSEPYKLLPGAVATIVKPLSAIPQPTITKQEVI
As to the kind of experiment: protein-binding microarray. The conditions noted are these: COS-7 nuclear extract on double-stranded Agilent 4x180k PBM; binding buffer, salt, pH and temperature not given; high values mean tight binding; double strand, one strand shown; sequences stand for … in …GCCTAGGGAGATTAGAGTATCGGTCGA
AGACCTTTGTTCACTTGTTTATCTGCTGCC: the binding signal (log2 normalized intensity) came to 2.48.

Regarding GCTCCAGCCACTCATTCTTGGAATGCATTG, the binding signal (log2 normalized intensity) was -1.03.

Consider AGTTGAGGTGAATACACAGCTAGCAGGTGA, for which the binding signal (log2 normalized intensity) is -1.09.

As for GACGTTATCAGCAGGAGGAGGAGCCAGTGA, the binding signal (log2 normalized intensity) was -1.27.

With CCTGGCCCTCTGGGTTGGAACCCCGTTTCT, the binding signal (log2 normalized intensity) is 1.37.

On to AAAGTTTGAGGAGAGTCAAAGGTTAATGAG, for which the binding signal (log2 normalized intensity) is 3.35.

Consider TGGTGCTGATGTGTTCGCCCCTAGGACACG, for which the binding signal (log2 normalized intensity) was determined as 1.75.

As for CCAGGCCAACCGGTTCCACAGTATCCCTTG, the binding signal (log2 normalized intensity) was -1.37.

For the sequence GAGGATATCCCTCCGCCTCCCTCCCCCTTT, the binding signal (log2 normalized intensity) is 5.15.

Turning to AATAGTACACATCAAAGTATGAGAGCCTGA, the binding signal (log2 normalized intensity) was -1.32.

Consider ATTGGTTTACAGCACTTCATCCTTATGTAA, for which the binding signal (log2 normalized intensity) was found to be 0.727.

For CCCCCACTGCCTGACCCCAAGTAATAGCCG, the binding signal (log2 normalized intensity) was found to be 5.69.

Consider CACTTTGAGCAAGATAATGACTAAGGCAGG, for which the binding signal (log2 normalized intensity) is -1.37.

For the sequence CCTGAAACTAGACCAAGAAGACTTTGGGGG, the binding signal (log2 normalized intensity) was -1.39.

Consider GGACCCTGTTACCACACCACAGCGGGGCCT, for which the binding signal (log2 normalized intensity) was -1.15.

GCCTTTTGGCTAAAGTCCAAATTCCTTGGA: the binding signal (log2 normalized intensity) stood at 4.45.

For the sequence GGATAATGTGCCCTTTGTACCTGGGGCAAA, the binding signal (log2 normalized intensity) was 5.83.

As to AGGAAAAAAATAGGAGACTGTCTTAGGAAA, the binding signal (log2 normalized intensity) was -1.24.

For GCCACGGTCAGCAATGTGGACTTTGTCCTG, the binding signal (log2 normalized intensity) was 10.2.

In the case of AGGAATGAGACATGAATCCATCCCACCTCA, the binding signal (log2 normalized intensity) came out at 0.0459.

CAGAAGGTCAGAGATCAGGTCTCTTTTATG: the binding signal (log2 normalized intensity) was 1.22.

As to ATCACAAGACATGAAGATGCAGAACAAGGT, the binding signal (log2 normalized intensity) is -1.24.

On to CAGGGAAATATGTTCCACCCAGGGTGGCAG, for which the binding signal (log2 normalized intensity) was -1.46.

As for TTGCTCATGACTATTCTCTAAACTCTGGGC, the binding signal (log2 normalized intensity) was -0.561.

Turning to GGAAGTGGGGAAGAAGTGTTCCCCTGTCAC, the binding signal (log2 normalized intensity) was 1.54.

For TCTGGGGTATAAAGGTCAGGGATAGAACTG, the binding signal (log2 normalized intensity) turned out to be 3.91.

In the case of TTCAGATACAAGCTAATCTGACCAAGTGAA, the binding signal (log2 normalized intensity) is -0.729.

In the case of CATGTTTACTTTTGCAAGGTTTGTTCTTAT, the binding signal (log2 normalized intensity) was 1.87.

Take GGGTTCCAAGACCAAGCAAGCCAGTCAGAA: the binding signal (log2 normalized intensity) was -1.32.

Consider ATAGTTCAGCCATCAGGTAACATATTGTCC, for which the binding signal (log2 normalized intensity) is 1.18.

For TGTGTGTTCTGGACTTCTCTGCCCTCTTCC, the binding signal (log2 normalized intensity) stood at 3.22.

With CCCCCAAGGCATGGGACCTTTGCCCTTCTT, the binding signal (log2 normalized intensity) was 6.71.

Consider GTTATGAGTCTGTTGTCTAACATTTTTGAC, for which the binding signal (log2 normalized intensity) was determined as 0.787.

Consider CTTCAAGTCAGTTGCATGCAACCTTTGTCC, for which the binding signal (log2 normalized intensity) was found to be 6.32.

In the case of GCTGAGGAATTTGGACTTCAGCCCAGGCTG, the binding signal (log2 normalized intensity) turned out to be 4.62.

For TCTGTTTCCAGAAATCTGACCTCTGCCTCG, the binding signal (log2 normalized intensity) came out at 4.55.

For the sequence AGCCTCTATGTCAGGCCATTTCACCTTTGC, the binding signal (log2 normalized intensity) was 4.57.

On to CCCCGCCCCGCGTCCGTGCACCCTTCCTCT, for which the binding signal (log2 normalized intensity) amounted to 3.83.

Turning to GTGATAATGGATGGCAAATAAAGGAACTCT, the binding signal (log2 normalized intensity) was -1.38.

Consider ACAACCTTTGGCCGTGCATGCTTGGACTCT, for which the binding signal (log2 normalized intensity) turned out to be 5.22.

As to TTTATCCTTTTTTGAAGGTTAAAGTCCATT, the binding signal (log2 normalized intensity) is 7.82.

For CTGACTCACGGCAGCTTGTACCCTTCTTTC, the binding signal (log2 normalized intensity) was 2.29.

Take ACACTCAGGTCTTTCTGGAGATAACAGTGT: the binding signal (log2 normalized intensity) turned out to be 1.11.

As for TCATGATTTAGTAAGTTCAAGAAGACCTTT, the binding signal (log2 normalized intensity) came out at 4.29.

As to GGGGGAGGGTAAATATAGTTAAAGCCAGCT, the binding signal (log2 normalized intensity) is -1.28.

On to CCCAGACACACCTGCAATGGAAAATTCCAT, for which the binding signal (log2 normalized intensity) is -1.27.

Regarding ACGGAAGGCCGGGCCTCAAGGGAATCTGCT, the binding signal (log2 normalized intensity) was -1.46.

Turning to AGGTCATTGTGCTGACTGGTTGGAATTCCA, the binding signal (log2 normalized intensity) is 1.2.

In the case of TAATATTTGCAAATGACTTTGAGAGTAAGT, the binding signal (log2 normalized intensity) is 0.692.

Regarding TCCAAGGTTCAGCTCCATCTGAACTCTTCA, the binding signal (log2 normalized intensity) was 2.5.

Consider GCTACATGATACAGCCTTTTGCCCCCAGGC, for which the binding signal (log2 normalized intensity) was 4.86.

As for GCACTGAGGAATGGAAGGACCTTGGACTGA, the binding signal (log2 normalized intensity) worked out at 5.29.

In the case of CACACACAGACATAAACACAGACACACATG, the binding signal (log2 normalized intensity) was -1.25.

Consider CAGAGTTCACTTTCCTCTCATTTCTGAACA, for which the binding signal (log2 normalized intensity) was determined as 0.832.

Turning to AAAAGGACACAGGGTCTGTTTTCAAACACA, the binding signal (log2 normalized intensity) is -1.32.

For GCAAATACAGGTGAATTTCAGTGCCCTTTG, the binding signal (log2 normalized intensity) came to 3.36.

For CATTCTTTTCCCCATACCAGGCAGTTTCCC, the binding signal (log2 normalized intensity) worked out at 2.26.

Take CCTCCAGGCCCCAGCCACGCCCTCTAACCC: the binding signal (log2 normalized intensity) is 3.33.

TTCACCAATTTCCCCCATGAAATTGAGATA: the binding signal (log2 normalized intensity) was determined as 3.25.

For CAAGTTTGAACTGCACAGGCCTACTTATAG, the binding signal (log2 normalized intensity) was -1.24.

Regarding GAACAGGTTCAGATAAGACAAGCTCTGTTT, the binding signal (log2 normalized intensity) is -1.25.

For CTCCTCCCCCCGCCGCATCTACCAGCGTAA, the binding signal (log2 normalized intensity) came to 4.22.

Consider TGGCTGCATCCTTCTCCTCCCCTCCCCCCA, for which the binding signal (log2 normalized intensity) was 5.92.

For GTGCACTTTGACCCTGCTGTAGTGTGTAAG, the binding signal (log2 normalized intensity) is 5.69.

As to AGCAGATGCTTCCCAGAAAGAATGAGCGGG, the binding signal (log2 normalized intensity) was -1.29.

On to ACAGGCTTAACATAAAGGGTTGAAGAAAGA, for which the binding signal (log2 normalized intensity) was -1.2.

In the case of ACCTCACAAAGGGGGCCTGAAGGGTGTTGT, the binding signal (log2 normalized intensity) was -1.07.

On to CTGAGGTGCCCTTACATTTTGCTCTTTGTA, for which the binding signal (log2 normalized intensity) was determined as 2.81.

Regarding ACTCTCTCAACACTGGCTTCTCTGGCCTAG, the binding signal (log2 normalized intensity) is -1.29.

TGGAGGCGGTGCCATTCACAGGAATGTTGG: the binding signal (log2 normalized intensity) was -1.32.

For GGACGTGTGTGTTCTGGACTTCTCTGCCCT, the binding signal (log2 normalized intensity) amounted to 3.25.

In the case of AGATAAGAGGTGTCATGGCAATAAACAAAA, the binding signal (log2 normalized intensity) is -1.39.
